Results published in ChEMBL document CHEMBL4888484, “Replenishing the malaria drug discovery pipeline: Screening and hit evaluation of the MMV Hit Generation Library 1 (HGL1) against asexual blood stage Plasmodium falciparum ,using a nano luciferase reporter read-out” (2022).
The campaign covered roughly 150,000 compounds. About 540 (0.36%) showed an effect of 50% or more. Some of the results follow.

Each molecule was assayed on Plasmodium falciparum (assay: Primary screen in NF54 nanoGlo assay, in single point, at 2uM, 72h; a lower Z score goes with more inhibition). Conditions: timepoint 72 hour.
Assay type: functional, Erythrocyte

Point of comparison: `COC(=O)NCC(=O)N1CCC[C@@]2(CCC(=O)N(Cc3ccncc3)C2)C1`, “% Inhibition” value 11%. Against it:
- Cc1ccc(C(=O)N/C(=N/c2cccc(C)c2C)NCc2cccnc2)cc1 — lower, -9%
- Cc1nnc(-c2ccc3ccn(CC(=O)Nc4ccc(F)c(Cl)c4)c3c2)o1 — higher, 85%
- CS(=O)(=O)C1CC2CCC(C1)N2C(=O)CCc1ccc(Cl)c(F)c1 (stereo unspecified) — lower, -22%
- O=C1NCCN(C(=O)c2cc(F)cc(F)c2)[C@H]1Cc1ccccc1 — lower, -18%
- O=C(c1cc2nc(-c3ccc(Br)cc3)cc(C(F)(F)F)n2n1)N1CCN(C(c2ccccc2)c2ccccc2)CC1 — lower, -1%
- COCCN1C[C@@H]2c3ccc(OC)cc3OC[C@]2(CO)C1 — lower, -13%
- Nc1ccc2nn(-c3cccc4ccccc34)nc2c1 — lower, 6%
- CCn1cc(Cl)c(-c2nnc(Nc3cn(C)nc3C)s2)n1 — lower, -4%
- O=C(NC1CC1)[C@H]1CCCN(C2CCN(CCCc3ccccc3)CC2)C1 — lower, 5%
- Clc1ccc(NCC2CC2)cc1Cl — lower, -11%
- O=C(CCN1CCCC1=O)N[C@@H]1COCC[C@@H]1Oc1cccc(F)c1 — lower, -10%
- NC(=O)c1c(F)cccc1NCC(C1CC1)C1CC1 — higher, 16%
- Cc1ccc(N2C[C@H](C(=O)O)[C@@H](C(C)C)C2)nn1 — lower, -13%
- COc1ccc(CN[C@@H]2CN(Cc3ccccc3)C(C)(C)C2)cn1 — lower, -9%
- CC(=O)NCC1CN(C(C(=O)NC2CC2)c2ccc(F)cc2)CCO1 (stereo unspecified) — lower, -7%
- COc1ccc(CCN2Cc3cc(NC(=O)c4ccc(Cl)c(Cl)c4)ccc3O[C@@H](C)C2=O)cc1OC — lower, -10%
- C[C@H](NC(=O)Nc1ccncc1F)C1CC1 — lower, -11%
- CCCCN(CC(N)=O)S(=O)(=O)Cc1cc(Cl)cc(Cl)c1 — lower, -10%
- Cn1ccnc1[C@@H](NC(=O)c1cc(F)cc2ccoc12)C(C)(C)CO — lower, -13%
- CO[C@@]1(C)CCCN(Cc2ccsc2)C1 — lower, -6%
- Cc1ncnc(N2CCC(N3CCC[C@H](C(=O)NCc4ccccn4)C3)CC2)c1C — lower, -11%
- O=C(COc1ccccc1)N1CCCN(C2=Nc3cc(C(F)(F)F)ccc3Oc3ccccc32)CC1 — lower, -11%

Point of comparison: `COc1ccc(CCN2Cc3cc(NC(=O)c4ccc(Cl)c(Cl)c4)ccc3O[C@@H](C)C2=O)cc1OC`, Z score 0.92. Against it:
- Cc1ccc(C(=O)N/C(=N/c2cccc(C)c2C)NCc2cccnc2)cc1 — higher, 1.47
- Cc1nnc(-c2ccc3ccn(CC(=O)Nc4ccc(F)c(Cl)c4)c3c2)o1 — lower, -10.55
- CS(=O)(=O)C1CC2CCC(C1)N2C(=O)CCc1ccc(Cl)c(F)c1 (stereo unspecified) — higher, 2.86
- O=C1NCCN(C(=O)c2cc(F)cc(F)c2)[C@H]1Cc1ccccc1 — higher, 2.46
- O=C(c1cc2nc(-c3ccc(Br)cc3)cc(C(F)(F)F)n2n1)N1CCN(C(c2ccccc2)c2ccccc2)CC1 — lower, 0.2
- COCCN1C[C@@H]2c3ccc(OC)cc3OC[C@]2(CO)C1 — higher, 2.53
- Nc1ccc2nn(-c3cccc4ccccc34)nc2c1 — lower, -1.05
- CCn1cc(Cl)c(-c2nnc(Nc3cn(C)nc3C)s2)n1 — lower, 0.56
- O=C(NC1CC1)[C@H]1CCCN(C2CCN(CCCc3ccccc3)CC2)C1 — lower, -0.55
- Clc1ccc(NCC2CC2)cc1Cl — higher, 1.71
- O=C(CCN1CCCC1=O)N[C@@H]1COCC[C@@H]1Oc1cccc(F)c1 — higher, 1.92
- NC(=O)c1c(F)cccc1NCC(C1CC1)C1CC1 — lower, -2.02
- Cc1ccc(N2C[C@H](C(=O)O)[C@@H](C(C)C)C2)nn1 — higher, 1.69
- COc1ccc(CN[C@@H]2CN(Cc3ccccc3)C(C)(C)C2)cn1 — lower, 0.81
- CC(=O)NCC1CN(C(C(=O)NC2CC2)c2ccc(F)cc2)CCO1 (stereo unspecified) — higher, 1.16
- C[C@H](NC(=O)Nc1ccncc1F)C1CC1 — higher, 1.64
- COC(=O)NCC(=O)N1CCC[C@@]2(CCC(=O)N(Cc3ccncc3)C2)C1 — lower, -1.46
- CCCCN(CC(N)=O)S(=O)(=O)Cc1cc(Cl)cc(Cl)c1 — higher, 2.22
- Cn1ccnc1[C@@H](NC(=O)c1cc(F)cc2ccoc12)C(C)(C)CO — higher, 1.41
- CO[C@@]1(C)CCCN(Cc2ccsc2)C1 — higher, 1.06
- Cc1ncnc(N2CCC(N3CCC[C@H](C(=O)NCc4ccccn4)C3)CC2)c1C — higher, 2.17
- O=C(COc1ccccc1)N1CCCN(C2=Nc3cc(C(F)(F)F)ccc3Oc3ccccc32)CC1 — higher, 1.73
